# Measured values: paper PMC12820563, “FoxP3 forms a head-to-head dimer in vivo and stabilizes its multimerization on adjacent microsatellites”
# The other results are listed elsewhere or left out.
# Target: T1, MBP-FoxP1dN (Mus musculus, UniProt P58462 326-579)
# T1 sequence: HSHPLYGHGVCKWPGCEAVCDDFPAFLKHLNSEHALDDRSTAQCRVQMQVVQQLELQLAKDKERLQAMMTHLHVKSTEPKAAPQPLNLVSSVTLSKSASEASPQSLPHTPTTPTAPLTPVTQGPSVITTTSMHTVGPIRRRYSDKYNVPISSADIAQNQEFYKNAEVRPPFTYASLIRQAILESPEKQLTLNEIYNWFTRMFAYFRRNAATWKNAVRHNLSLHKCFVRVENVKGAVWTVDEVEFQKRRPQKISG
# Test: PD-seq (MBP pull-down with sequencing); 20 mM Tris-HCl pH 7.5, 100 mM NaCl, 1.5 mM MgCl2, 0.4 uM protein, 0.1 uM dsDNA library, 30 min, room temperature, amylose pull-down; high values mean tight binding
# Details: protein: recombinant; tags: His6-MBP; chain copies: 2; dsDNA, one strand shown
# Procedure, shortened: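 Binding is the reads-per-million enrichment of pull-down relative to input, pooled across replicates. For this, 0.4 µM His6-MBP-tagged mouse FoxP3 or FoxP1 fragment lacking the N-terminus, made in E. coli, was incubated with 0.1 µM Klenow-filled double-stranded degenerate DNA library for 30 min at room temperature in Tris pH 7.5 buffer with NaCl and MgCl2. Complexes bound to amylose resin were washed three times before proteinase K released the DNA for PCR barcoding and Illumina sequencing.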
row,Sequence,binding signal
1,GATGATTGTTCTCCCAGCTGATGAATTTAGCTCTTCGAGTAAACAAATTTTCCTAATCTTTCTGTTCAAGCGCCATCTAC,0.826 RPM ratio (pull-down/input)
2,GATGATTGTTCTCCCAGCTGATGAATTGAGATAGTCGAGTAAACAAATTTTCCTAATCTTTCTGTTCAAGCGCCATCTAC,0.891 RPM ratio (pull-down/input)
3,GATGATTGTTCTCCCAGCTGATGAATTAATCAGATCGAGTAAACAAATTTTCCTAATCTTTCTGTTCAAGCGCCATCTAC,0.846 RPM ratio (pull-down/input)
4,GATGATTGTTCTCCCAGCTGATGAATTTGAACTTTCGAGTAAACAAATTTTCCTAATCTTTCTGTTCAAGCGCCATCTAC,0.845 RPM ratio (pull-down/input)
5,GATGATTGTTCTCCCAGCTGATGAATTGTAATGGTCGAGTAAACAAATTTTCCTAATCTTTCTGTTCAAGCGCCATCTAC,0.896 RPM ratio (pull-down/input)
6,GATGATTGTTCTCCCAGCTGATGAATTACGTATTTCGAGTAAACAAATTTTCCTAATCTTTCTGTTCAAGCGCCATCTAC,1.14 RPM ratio (pull-down/input)
7,GATGATTGTTCTCCCAGCTGATGAATTGGGTCAGTCGAGTAAACAAATTTTCCTAATCTTTCTGTTCAAGCGCCATCTAC,0.796 RPM ratio (pull-down/input)
8,GATGATTGTTCTCCCAGCTGATGAATTAACGGCGTCGAGTAAACAAATTTTCCTAATCTTTCTGTTCAAGCGCCATCTAC,0.945 RPM ratio (pull-down/input)
9,GATGATTGTTCTCCCAGCTGATGAATTGTCGAACTCGAGTAAACAAATTTTCCTAATCTTTCTGTTCAAGCGCCATCTAC,0.936 RPM ratio (pull-down/input)
10,GATGATTGTTCTCCCAGCTGATGAATTTTCGGGATCGAGTAAACAAATTTTCCTAATCTTTCTGTTCAAGCGCCATCTAC,0.824 RPM ratio (pull-down/input)
11,GATGATTGTTCTCCCAGCTGATGAATTCGTCTGATCGAGTAAACAAATTTTCCTAATCTTTCTGTTCAAGCGCCATCTAC,0.84 RPM ratio (pull-down/input)
12,GATGATTGTTCTCCCAGCTGATGAATTTGAGGAATCGAGTAAACAAATTTTCCTAATCTTTCTGTTCAAGCGCCATCTAC,0.905 RPM ratio (pull-down/input)
13,GATGATTGTTCTCCCAGCTGATGAATTCCTGAACTCGAGTAAACAAATTTTCCTAATCTTTCTGTTCAAGCGCCATCTAC,0.79 RPM ratio (pull-down/input)
14,GATGATTGTTCTCCCAGCTGATGAATTCGCTCACTCGAGTAAACAAATTTTCCTAATCTTTCTGTTCAAGCGCCATCTAC,0.816 RPM ratio (pull-down/input)
15,GATGATTGTTCTCCCAGCTGATGAATTGTATCTGTCGAGTAAACAAATTTTCCTAATCTTTCTGTTCAAGCGCCATCTAC,1.08 RPM ratio (pull-down/input)
16,GATGATTGTTCTCCCAGCTGATGAATTAGTACTTTCGAGTAAACAAATTTTCCTAATCTTTCTGTTCAAGCGCCATCTAC,1.02 RPM ratio (pull-down/input)
17,GATGATTGTTCTCCCAGCTGATGAATTATCGCGCTCGAGTAAACAAATTTTCCTAATCTTTCTGTTCAAGCGCCATCTAC,0.975 RPM ratio (pull-down/input)
18,GATGATTGTTCTCCCAGCTGATGAATTGGTCCAGTCGAGTAAACAAATTTTCCTAATCTTTCTGTTCAAGCGCCATCTAC,0.84 RPM ratio (pull-down/input)
19,GATGATTGTTCTCCCAGCTGATGAATTTGCCTCTTCGAGTAAACAAATTTTCCTAATCTTTCTGTTCAAGCGCCATCTAC,1.06 RPM ratio (pull-down/input)
20,GATGATTGTTCTCCCAGCTGATGAATTTCACCCTTCGAGTAAACAAATTTTCCTAATCTTTCTGTTCAAGCGCCATCTAC,0.881 RPM ratio (pull-down/input)

row,Sequence,binding signal
1,GATGATTGTTCTCCCAGCTGATGAATTTGAAAGGTCGAGTAAACAAATTTTCCTAATCTTTCTGTTCAAGCGCCATCTAC,0.81 RPM ratio (pull-down/input)
2,GATGATTGTTCTCCCAGCTGATGAATTACGAACTTCGAGTAAACAAATTTTCCTAATCTTTCTGTTCAAGCGCCATCTAC,0.975 RPM ratio (pull-down/input)
3,GATGATTGTTCTCCCAGCTGATGAATTCTCGGCCTCGAGTAAACAAATTTTCCTAATCTTTCTGTTCAAGCGCCATCTAC,0.731 RPM ratio (pull-down/input)
4,GATGATTGTTCTCCCAGCTGATGAATTATATTCGTCGAGTAAACAAATTTTCCTAATCTTTCTGTTCAAGCGCCATCTAC,0.944 RPM ratio (pull-down/input)
5,GATGATTGTTCTCCCAGCTGATGAATTTGCCCGATCGAGTAAACAAATTTTCCTAATCTTTCTGTTCAAGCGCCATCTAC,0.831 RPM ratio (pull-down/input)
6,GATGATTGTTCTCCCAGCTGATGAATTACCCTAATCGAGTAAACAAATTTTCCTAATCTTTCTGTTCAAGCGCCATCTAC,1.13 RPM ratio (pull-down/input)
7,GATGATTGTTCTCCCAGCTGATGAATTCGGTCCTTCGAGTAAACAAATTTTCCTAATCTTTCTGTTCAAGCGCCATCTAC,0.805 RPM ratio (pull-down/input)
8,GATGATTGTTCTCCCAGCTGATGAATTTCAAGCATCGAGTAAACAAATTTTCCTAATCTTTCTGTTCAAGCGCCATCTAC,1.01 RPM ratio (pull-down/input)
9,GATGATTGTTCTCCCAGCTGATGAATTCCGTGATTCGAGTAAACAAATTTTCCTAATCTTTCTGTTCAAGCGCCATCTAC,0.843 RPM ratio (pull-down/input)
10,GATGATTGTTCTCCCAGCTGATGAATTTACTCAATCGAGTAAACAAATTTTCCTAATCTTTCTGTTCAAGCGCCATCTAC,1.35 RPM ratio (pull-down/input)
11,GATGATTGTTCTCCCAGCTGATGAATTAGTGTAGTCGAGTAAACAAATTTTCCTAATCTTTCTGTTCAAGCGCCATCTAC,1.05 RPM ratio (pull-down/input)
12,GATGATTGTTCTCCCAGCTGATGAATTTGTTGGGTCGAGTAAACAAATTTTCCTAATCTTTCTGTTCAAGCGCCATCTAC,1.56 RPM ratio (pull-down/input)
13,GATGATTGTTCTCCCAGCTGATGAATTCGTCTCGTCGAGTAAACAAATTTTCCTAATCTTTCTGTTCAAGCGCCATCTAC,0.814 RPM ratio (pull-down/input)
14,GATGATTGTTCTCCCAGCTGATGAATTTGACGTATCGAGTAAACAAATTTTCCTAATCTTTCTGTTCAAGCGCCATCTAC,0.962 RPM ratio (pull-down/input)
15,GATGATTGTTCTCCCAGCTGATGAATTCGTCTTATCGAGTAAACAAATTTTCCTAATCTTTCTGTTCAAGCGCCATCTAC,0.93 RPM ratio (pull-down/input)
16,GATGATTGTTCTCCCAGCTGATGAATTGAATGAATCGAGTAAACAAATTTTCCTAATCTTTCTGTTCAAGCGCCATCTAC,0.958 RPM ratio (pull-down/input)
17,GATGATTGTTCTCCCAGCTGATGAATTCTTACCGTCGAGTAAACAAATTTTCCTAATCTTTCTGTTCAAGCGCCATCTAC,0.868 RPM ratio (pull-down/input)
18,GATGATTGTTCTCCCAGCTGATGAATTCCTCGCATCGAGTAAACAAATTTTCCTAATCTTTCTGTTCAAGCGCCATCTAC,1.09 RPM ratio (pull-down/input)
19,GATGATTGTTCTCCCAGCTGATGAATTCGCACAGTCGAGTAAACAAATTTTCCTAATCTTTCTGTTCAAGCGCCATCTAC,0.856 RPM ratio (pull-down/input)
20,GATGATTGTTCTCCCAGCTGATGAATTATCCAAGTCGAGTAAACAAATTTTCCTAATCTTTCTGTTCAAGCGCCATCTAC,0.914 RPM ratio (pull-down/input)
